Measurements taken from PubChem BioAssay AID504845 (National Center for Advancing Translational Sciences (NCATS), 2011).
The campaign covered roughly 390,000 compounds. About 150 (0.038%) were called active. Another 3% or so got no clear call; they are omitted. Calls come from the whole dose curve; as a rule, active = well fitted inhibition curve with a large enough effect; inconclusive = small, poorly fitted or top-dose-only effect; inactive = no such curve, though single readings can be large or run the other way. This is a selection; strong and weak results do not stand in their true shares. The source holds several records for some structures; these can differ, active in one and inactive in another.

These compounds were tested against Regulator of G-protein signaling 4 (Homo sapiens) (UniProt P49798) (assay: Inhibitors of Regulator of G Protein Signaling (RGS) 4: qHTS). Conditions: Transcreener GDP fluorescence polarization, RGS4-accelerated GTP hydrolysis; series mostly up to 114 µM; activity change, negative = inhibition: at the top concentration.
From the text: G-protein-coupled receptors (GPCRs) are well-established targets for drug discovery and development. Members of the "regulator of G-protein signaling" (RGS)-protein superfamily have recently emerged as critical modulators of specific GPCR signaling pathways. […] Combining specific RGS domain inhibitors with existing GPCR agonists should potentiate cellular responses and could also increase the specificity of action of existing therapeutics. Small molecule modulators of RGS domain activity should also have clinical utility in inhibiting or potentiating the actions of endogenous GPCR agonists. In particular, the diversity of RGS proteins with highly localized and dynamically regulated distributions in the human brain makes this family of proteins attractive targets for pharmacotherapy of central nervous system (CNS) disorders such as Parkinson's disease, schizophrenia, and anxiety.
This assay was used to screen the NIH Molecular Libraries Small Molecule Repository (MLSMR) in order to identify a small molecule that inhibits RGS4.
NIH Chemical Genomics Center [NCGC]
NIH Molecular Libraries Probe Centers Network [MLPCN]
Assay Submitter (PI): David Siderovski, University of North Carolina Chapel Hill (School of Medicine)
Two microliters of 500nM (2x working concentration) is dispensed into black medium-binding solid-bottom Kalypsys plates. Then with the Kalypsys pintool 23nl of control and compounds are transferred; the control compound is […] CCG-4986 (working concentration). After a 10 minute incubation at room temperature 2ul of antibody is added with the Kalypsys dispenser; (-)RGS4/Transcreener GDP solution in columns 3 and 4 which consisted of 10nM (2x working concentration) Alexa633, 20uM GTP, and 20 ug/ml GDP antibody and (+)RGS4/Transcreener GDP solution in columns 1,2, and 5 to 48 which consists of 900nM RGS4 (2x working concentration), 10nM Alexa633, 20 ug/ml GDP antibody. The plate is centrifuged at 1000 RPM for 15 seconds to remove any possible bubbles and then incubated for 5 minutes at ambient room temperature. An initial fluorescent polarization read (620 nm/688 nm) is performed on the Envision before the plate is incubated for 90 minutes at 30 deg C at a relative humidity of 80%. The plate is once more centrifuged at 1000 RPM for 15 seconds and another Envision fluorescent polarization (620 nm/688 nm) read is carried out.
% is set by controls: 0 for no effect and ±100 for the full control effect; potency is the fitted concentration of half-maximal effect.
Note: nearly all actives have a fitted effect of over 75% in size.

Chain of UniProt P49798 (P49798 whole entry, looked up, the tested form may be a part): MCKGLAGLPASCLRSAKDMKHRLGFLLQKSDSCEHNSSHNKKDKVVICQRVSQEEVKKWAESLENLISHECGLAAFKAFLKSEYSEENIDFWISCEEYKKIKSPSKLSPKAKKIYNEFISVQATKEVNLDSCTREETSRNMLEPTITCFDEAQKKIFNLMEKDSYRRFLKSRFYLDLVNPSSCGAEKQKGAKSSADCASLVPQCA

**Q.** Which “activity change, negative = inhibition” value does the source give for `Nc1ccc(CCN2CCN(c3cccc(C(F)(F)F)c3)CC2)cc1` here?
**A.** inactive: -2.53%

**Q.** For `C=C1C(O)[C@@H]2O[C@]3(CC[C@H](/C=C/C(C)[C@@H]4CC(C)=CC5(O[C@H](C[C@@](C)(O)C(=O)O)CCC5O)O4)O3)CC[C@H]2O[C@@H]1C(O)CC(C)[C@H]1OC2(CCCCO2)CCC1C` (stereo not given in full), which “activity change, negative = inhibition” value is on record?
**A.** inactive: 5.42%

**Q.** `N.N.N.N.N.N.N.N.N.N.N.N.N.N.O.O.[Ru+4].[Ru+5].[Ru+5]` was tested. Which Potency did it give?
**A.** active: 18.9 µM

**Q.** `CC(C)C[C@H]1C(=O)N2CCC[C@H]2[C@]2(O)O[C@](NC(=O)[C@@H]3C=C4c5cccc6[nH]c(Br)c(c56)CC4N(C)C3)(C(C)C)C(=O)N12` (stereo not given in full) was tested. Which “activity change, negative = inhibition” value did it give?
**A.** inactive: -2.26%

**Q.** How did the “activity change, negative = inhibition” value turn out when `CC12C=CC(=O)C=C1CCC1C2=CCC2(C)C1CC[C@@H]2C(=O)CN1CCN(c2cc(N3CCCC3)nc(N3CCCC3)n2)CC1` (stereo not given in full) was run?
**A.** inactive: -10% [at 56.9 µM]

**Q.** With `C#CCN(C)[C@H](C)Cc1ccccc1` as the compound, how does the Potency read?
**A.** inactive

**Q.** With `C[N+]1(C)C2CC[C@H]1CC(OC(=O)C(CO)c1ccccc1)C2` (stereo not given in full) as the compound, how does the “activity change, negative = inhibition” value read?
**A.** inactive: -3.22%

**Q.** Which “activity change, negative = inhibition” value does the source give for `C[C@]12CCC(=O)C=C1CC[C@@H]1C2CC[C@]2(C)C(=O)CCC12` (stereo not given in full) here?
**A.** inactive: -20.5%

**Q.** Which “activity change, negative = inhibition” value does the source give for `O=S1(=O)N(CCN2CC=C(c3c[nH]c4cc(F)ccc34)CC2)c2cccc3c2N1CCC3` here?
**A.** inactive: -15.3%

**Q.** For `NCCCNCCSP(=O)(O)O`, which “activity change, negative = inhibition” value is on record?
**A.** inactive: -12.1% [at 56.9 µM]

**Q.** Which “activity change, negative = inhibition” value does the source give for `NC1C=CC=C(C(=O)O)C1` (stereo not given) here?
**A.** inactive: 15.8%

**Q.** How did the “activity change, negative = inhibition” value turn out when `C[Se]C[C@@H](N)C(=O)O` was run?
**A.** inactive: -48.8%

**Q.** For `CC(C)NC[C@H](O)COc1cccc2[nH]ccc12`, which Potency is on record?
**A.** inactive

**Q.** `C#CCOC(=O)C1=CCCN(C)C1` was tested. Which Potency did it give?
**A.** inactive

**Q.** With `c1ccc(C2CC2)c(OCC2=NCCN2)c1` as the compound, how does the Potency read?
**A.** inactive

**Q.** `CCCC(=O)OCC[N+](C)(C)C` was tested. Which Potency did it give?
**A.** inactive

**Q.** Which “activity change, negative = inhibition” value does the source give for `CC[N+](CC)(CC)CCOc1cccc(OCC[N+](CC)(CC)CC)c1OCC[N+](CC)(CC)CC` here?
**A.** inactive: -34.7%

**Q.** For `O=c1c(O)c(-c2ccc(O)c(O)c2)oc2cc(O)cc(O)c12`, which “activity change, negative = inhibition” value is on record?
**A.** inactive: -11.4%

**Q.** How did the Potency turn out when `CCOC(=O)Nc1ccc(NCc2ccc(F)cc2)nc1N` was run?
**A.** active: 8.43 µM

**Q.** `CNC(=O)Oc1ccc2c(c1)[C@]1(C)CCN(C)[C@@H]1N2C` was tested. Which Potency did it give?
**A.** inactive

**Q.** With `Cc1cc(O)c2c(c1)C(=O)c1cc(O)cc(O)c1C2=O` as the compound, how does the “activity change, negative = inhibition” value read?
**A.** inactive: 21.1%

**Q.** How did the Potency turn out when `CN(C)C(=O)Oc1cccc([N+](C)(C)C)c1` was run?
**A.** inactive

**Q.** Which “activity change, negative = inhibition” value does the source give for `COc1ccc2[nH]cc(C3=CCNCC3)c2c1` here?
**A.** inactive: 440% [at 56.9 µM]

**Q.** With `CC(C)c1ccc(N2C(=O)NC(=O)/C(=C\c3cnc(-c4ccccc4)nc3)C2=O)cc1` as the compound, how does the activity change, negative = inhibition read?
**A.** inactive: 4.13% [at 11.4 µM]

**Q.** With `C=CC[N+]1(C)CC[C@]23c4c5ccc(O)c4O[C@H]2C(=O)CC[C@@]3(O)[C@H]1C5` (stereo not given in full) as the compound, how does the “activity change, negative = inhibition” value read?
**A.** inactive: -12.7%

**Q.** `O=C(O)c1cc[c]([Hg][Cl])cc1` was tested. Which “activity change, negative = inhibition” value did it give?
**A.** inactive: -143%

**Q.** `CNCCC(Oc1ccc(C(F)(F)F)cc1)c1ccccc1` (stereo not given) was tested. Which Potency did it give?
**A.** inactive

**Q.** `Clc1ccc(C(c2ccc(Cl)cc2)n2cc[n+](CC(OCc3ccc(Cl)cc3Cl)c3ccc(Cl)cc3Cl)c2)cc1` (stereo not given) was tested. Which “activity change, negative = inhibition” value did it give?
**A.** inactive: -32.3%

**Q.** How did the “activity change, negative = inhibition” value turn out when `CC(=O)OC1C([N+]2(C)CCCCC2)C[C@H]2C3CC[C@H]4C[C@H](OC(C)=O)C([N+]5(C)CCCCC5)CC4(C)C3CCC12C` (stereo not given in full) was run?
**A.** inactive: 40% [at 56.9 µM]

**Q.** Which “activity change, negative = inhibition” value does the source give for `O=P1(N(CCCl)CCCl)NCCCO1` (stereo not given) here?
**A.** inactive: 1.04%

**Q.** Which “activity change, negative = inhibition” value does the source give for `CCCN[C@@H]1CCc2c(OC)cccc2[C@@H]1C` here?
**A.** inactive: 73.2% [at 56.9 µM]

**Q.** `CN(C)[C@@H]1C(=O)C(C(N)=O)=C(O)[C@@]2(O)C(=O)C3=C(O)c4c(O)cccc4[C@@](C)(O)[C@H]3[C@H](O)[C@@H]12` was tested. Which “activity change, negative = inhibition” value did it give?
**A.** inactive: 11%

**Q.** `Cc1ccc(NC(=O)Cn2c(=O)oc3ccccc32)cc1C` was tested. Which “activity change, negative = inhibition” value did it give?
**A.** inactive: -13.1%

**Q.** `NC(N)=Nc1ccc2[nH]c3c(c2c1)C[C@@]1(O)[C@H]2Cc4ccc(O)c5c4[C@@]1(CCN2CC1CC1)C3O5` (stereo not given in full) was tested. Which “activity change, negative = inhibition” value did it give?
**A.** inactive: -2.44%

**Q.** For `O=C(O)Cc1cnc[nH]1`, which Potency is on record?
**A.** inactive

**Q.** `CN1C2CCC1CC(OC(=O)c1cc(Cl)cc(Cl)c1)C2` (stereo not given) was tested. Which Potency did it give?
**A.** inactive

**Q.** Which “activity change, negative = inhibition” value does the source give for `C[N+]1(C)C2CCC1CC(OC(=O)c1c[nH]c3ccccc13)C2` (stereo not given) here?
**A.** inactive: -19.4%

**Q.** Which “activity change, negative = inhibition” value does the source give for `CNC(=O)Oc1ccc2c(c1)[C@]1(C)CCN(C)C1N2C` (stereo not given in full) here?
**A.** inactive: 12.8%

**Q.** Which “activity change, negative = inhibition” value does the source give for `C[C@]12CCC3C(CC[C@H]4C[C@H](O)CC[C@]34C)C1CC[C@@H]2C(=O)CO` (stereo not given in full) here?
**A.** inactive: 1.59% [at 56.9 µM]

**Q.** How did the “activity change, negative = inhibition” value turn out when `Clc1ccc(COC(Cn2ccnc2)c2ccc(Cl)cc2Cl)c(Cl)c1` (stereo not given) was run?
**A.** inactive: -20.7%

**Q.** Which “activity change, negative = inhibition” value does the source give for `CC(=O)[C@H]1CC[C@H]2[C@@H]3CC=C4C[C@@H](OS(=O)(=O)O)CC[C@]4(C)[C@H]3CC[C@]12C` here?
**A.** inactive: -17.5%

**Q.** For `CC(C)CC(NP(=O)(O)O[C@@H]1O[C@@H](C)[C@H](O)[C@@H](O)[C@H]1O)C(=O)NC(Cc1c[nH]c2ccccc12)C(=O)O` (stereo not given in full), which “activity change, negative = inhibition” value is on record?
**A.** inactive: 12.8% [at 56.9 µM]

**Q.** For `C/C(O)=C(\C#N)C(=O)Nc1cc(Br)ccc1Br`, which Potency is on record?
**A.** inactive

**Q.** How did the Potency turn out when `NN=C(N)N` was run?
**A.** inactive

**Q.** Which “activity change, negative = inhibition” value does the source give for `C[C@]12CCC(=O)C=C1CC[C@@H]1[C@@H]2CC[C@]2(C)C(=O)CC[C@@H]12` here?
**A.** inactive: 11.3%
